From the supplement of paper PMC3724861
The list shows a part of the results.

System: T1, Caupolican (Caup) homeodomain DNA-binding domain
T1 sequence: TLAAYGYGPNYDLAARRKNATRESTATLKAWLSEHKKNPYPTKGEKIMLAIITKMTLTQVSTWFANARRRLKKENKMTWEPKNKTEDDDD
Test: PBM E-score (8-mer, recovered from the published 9-mer minima) (E-score (dimensionless, -0.5 to 0.5)); Drosophila protein; higher = stronger relative binding preference, active = 0.31 or more
Outline: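 Caup's homeodomain DNA-binding domain (residues 214-303) was made by in vitro transcription and translation and applied at 100 nM to custom-designed protein binding microarrays. Each value is an enrichment score that gives relative binding preference for a short DNA word, with higher meaning stronger. The 8-mer values were recovered from published 9-mer scores, each of which was the minimum of its two constituent 8-mer scores. A cutoff of 0.31 marks candidate sites.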

Sequence | PBM E-score
CTGATAGA | inactive: 0.119
GATTGATA | inactive: 0.143
AAAGACCT | inactive: -0.0628
AGATTCGA | inactive: -0.0196
AGTAGCCA | inactive: -0.103
ATTTTCTC | inactive: -0.0295
GGCATGCC | inactive: -0.0909
TTATTAAA | inactive: 0.178
CTCATGCA | inactive: 0.042
GCTCAAAA | inactive: -0.0258
ACTTGGGA | inactive: -0.159
AATTCAAG | inactive: 0.118
GTCGACTA | inactive: 0.0996
CTTGCTCC | inactive: -0.0473
GGTTCTAC | inactive: -0.0807
CTCTATCC | inactive: -0.0726
CATGCTAG | inactive: 0.255
ATACCACC | inactive: 0.091
CATATGTC | inactive: 0.277
ATAAGATG | inactive: 0.0984
GCGGAGCC | inactive: -0.36
GTATTAGA | inactive: 0.178
TGCAACAA | inactive: 0.256
GGCTCACC | inactive: -0.239

Sequence | PBM E-score
ATCGGGCA | inactive: -0.0328
AGCCAGGA | inactive: -0.114
ACATTCAT | ≥ 0.232
CGGTGGTC | inactive: -0.0872
CACTCTAC | inactive: 0.101
ACCAGCAG | inactive: -0.089
GTAGACAC | inactive: 0.194
CAAGAGCG | inactive: -0.077
ACCGATGC | inactive: -0.129
CCTGGGGA | inactive: -0.191
ATGACTAA | inactive: 0.048
GAATGCGC | inactive: -0.0752
CGGTGTGA | inactive: 0.0901
GCCAAAGA | inactive: -0.105
GTGAAGCA | inactive: -0.0135
ATTGCCAA | inactive: 0.0166
AGAGCGGC | inactive: -0.216
ATATGATC | inactive: 0.134
CATAGGGC | inactive: -0.137
GACGGGTA | inactive: -0.0427
ACAGGCAA | ≥ 0.161
CATTCAGG | inactive: -0.0759
AATGTGGA | inactive: 0.137
CCACCAAA | inactive: -0.0968

Sequence | PBM E-score
AGTGAAGG | inactive: -0.043
ACCAAGAT | inactive: 0.0682
ACCGTATG | inactive: 0.0477
CTTGCTAA | inactive: -0.0122
ACTCGGCG | inactive: -0.14
CCCATTAC | inactive: 0.00704
GGGCCGAC | inactive: -0.17
GCTGCTAC | inactive: -0.0513
GATACTGA | inactive: 0.0362
CGTTTACA | inactive: 0.199
CCATCTAG | inactive: -0.0593
CCATTCAC | inactive: -0.0712
AAAACCCT | inactive: -0.0223
CCGGGGCA | inactive: -0.23
CTTCCGTC | inactive: -0.14
CATGAGAA | inactive: 0.0961
CCTGGGTA | inactive: -0.102
CCATGGGA | inactive: -0.0326
AGCCCCAT | inactive: -0.196
CAGGGACC | inactive: -0.189
CGTCGTTC | inactive: 0.0474
ACCAACCA | inactive: 0.0424
ATCGAAGC | inactive: -0.0734
ACAGGGAT | inactive: 0.117

Sequence | PBM E-score
GCTGAGCC | inactive: -0.132
AGAAAATG | inactive: 0.115
AAGAAAGG | inactive: -0.00432
AGCTTCAG | inactive: -0.111
CATGCGAG | inactive: -0.0623
ACATAACT | inactive: 0.291
GGTTGACA | inactive: 0.231
CACACCGA | inactive: 0.0554
CAGGTAAA | inactive: 0.162
GAAGCGGA | inactive: -0.156
AGGACTAT | inactive: 0.00671
GAGCAAAC | inactive: 0.0255
CTATCTTC | inactive: 0.0312
GCAAACGA | inactive: 0.0896
ACGCGAGA | ≥ 0.00992
CATCACAG | inactive: 0.0918
CCCCTAAC | inactive: -0.234
CCCGGCGA | inactive: -0.145
CTGCATGA | inactive: -0.0538
AACGACGT | inactive: 0.0851
CACGAAGG | inactive: -0.0932
ATGACCAT | inactive: 0.135
AACGCCAT | inactive: -0.0153
CCAACGCG | inactive: -0.0949

Sequence | PBM E-score
CGCCCGGC | inactive: -0.27
AGGGCGTG | inactive: -0.103
CCCTCGTA | inactive: -0.00203
CATTGACA | inactive: 0.217
AGTATATG | inactive: 0.104
GGAACCGA | inactive: -0.0398
ATATAGTC | inactive: 0.111
ACCACTGA | inactive: -0.0338
CGTGTATC | inactive: 0.258
CCCCCTAC | inactive: -0.23
CCAATGAA | inactive: -0.121
ACACCCGA | inactive: -0.00452
ATGAAATC | ≥ 0.139
GGAGTACC | inactive: -0.0959
AAGATTCC | inactive: 0.00071
GCTGAACC | inactive: -0.121
TACGTTGA | inactive: 0.145
CGCTCTCA | inactive: -0.168
AATAGGAT | ≥ 0.122
GGAATTAC | inactive: 0.103
CCGTAATA | inactive: 0.0533
CGAGGCAC | inactive: -0.171
CTCGTTTC | inactive: 0.0187
CGAGAGAA | inactive: -0.102

Sequence | PBM E-score
AAGACAGC | inactive: -0.0428
ATTCACCC | inactive: -0.106
ATTTTAAC | inactive: 0.0613
TCCCGGAA | inactive: -0.0856
AGCTTCAA | inactive: -0.0251
TAGTGTCA | inactive: 0.182
AGAATCCT | inactive: -0.0519
CCCTTCGA | inactive: -0.172
GAAATCGA | inactive: -0.0636
TGTTCGAA | inactive: 0.235
AACATGAA | active: 0.387
ACTCGTTG | inactive: 0.0789
GTGGGGTA | inactive: -0.109
GAGGTTGC | inactive: -0.184
AGAACTCC | inactive: -0.077
ACTCTGTA | inactive: 0.0791
AAAGTAGC | inactive: -0.0164
AAGCAATC | ≥ 0.132
CATGGAAG | inactive: 0.0886
ATTACATG | active: 0.447
ATGACGGG | inactive: -0.0853
TACAGTAA | inactive: 0.238
CTTATGAA | inactive: -0.00095
